# Results taken from the RNAGym collection of RNA variant scans (doi:10.1073/pnas.2313332121).
# Variants at the background level are over-represented here.
# B1: TPR 5TU (parent)
# chain: GGAUCUUCUCGAUCUAACAAAAAAGACAAAUCUGCCACAAAGCUUGAGAGCAUCUUCGGAUGCAGAGGCGGCAGCCUUCGGUGGCGCGAUAGCGCCAACGUUCUCAACUAUGACACGCAAAACGCGUGCUCCGUUGAAUGGAGUUUAUCAUG
# Variants of: B1
# Assay: polymerase ribozyme fitness, log enrichment relative to wild type (log ratio); higher = more active; in vitro selection for triplet polymerase activity
# How it was run: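 A heterodimeric triplet polymerase ribozyme had each of its subunits mutagenized by PCR into a library, which was transcribed. One round of in vitro selection, done in triplicate, annealed each library with a biotinylated primer, its partner subunit and triplets, then incubated it frozen at −7 °C before gel excision of extended constructs, streptavidin-bead capture and RT-PCR. Fitness is the logarithm of genotype enrichment relative to wild-type enrichment, based on Illumina sequencing of inputs and outputs and inverse-variance-weighted replicate averages. A base-2 logarithm is used, and genotypes were kept only with ≥10 input reads and ≥1 read per output.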
row,Variant,polymerase ribozyme fitness (log ratio)
1,C38U A138G G140U A147G U148G U151G,≤ -4.2
2,C35U G86A C95G C125A,≤ -4.2
3,C38U A73G C87U,0.139
4,C38U U56A G58A G84U C87U C105U C108G,≤ -4.2
5,C36A A98U A107U C131A U146G,≤ -4.2
6,A37G G74U C85A A98U,≤ -4.2
7,C38U C95A C108U,-3.39
8,A37C A52U U101G G143A,≤ -4.2
9,C36U A52U U55A G94U A97U,≤ -4.2
10,C38U C57G A89U G100C,≤ -4.2
11,C38G U55A C63U C69A A91G A113U C118U G140C,≤ -4.2
12,C38U A60C C87U A115C C123A G141U G143U,≤ -4.2
13,C38G U78G C93U C114U A120U,≤ -4.2
14,A37G A49G G59A C69U C87A U101G A107G C118A U148A,≤ -4.2
15,A37U A52G C76U C95A,-2.41
16,A37G G92U C132U G133A U135G U151C,≤ -4.2
17,C35U G50C C87U A150C,≤ -4.2
18,A37G A60C,-3.15
19,C38G C63U G65A G67U C85G G88A C105G G117C,≤ -4.2
20,A37C C114U,-3.07
21,A37C C63G G65A C129A U139G U151A,≤ -4.2
22,C38U A66U A91U U109A,≤ -4.2
23,C38U U45G U61C U145A,≤ -4.2
24,C38U C85U C105U C123G,0.319

row,Variant,polymerase ribozyme fitness (log ratio)
1,C36A C99A U109C C125U U130A G136A U139G,≤ -4.2
2,C38U A52U C87A U101C,≤ -4.2
3,C38U A47C A64C U78G G84C A97C C108U,≤ -4.2
4,A39C C51A G74A G84A U104A,≤ -4.2
5,C36A C69A C85U U101G U146C,≤ -4.2
6,C35U U56A U61A C63U A64G,≤ -4.2
7,C38A U55G A60G,0.135
8,A39C C93A,≤ -4.2
9,C38U C108G,≤ -4.2
10,C38U A66G U82A C96U C125A U145A,≤ -4.2
11,C36U A39C G42A A49G G50C C76A C96U G136A G140U,≤ -4.2
12,C38U A41C C99G U134C U139A,≤ -4.2
13,C38A U77G C96U A97G G141C,≤ -4.2
14,C35U G83A,-0.173
15,C38U A49C C87A C93A U101C G140U C149A,≤ -4.2
16,A37G A52G U55A U56A C85U C103U U145A,-3.09
17,C36U A52G C131G,≤ -4.2
18,C38U U56A A64G C87U,≤ -4.2
19,C36U C93G C118U A122C A137G,≤ -4.2
20,A37C C79G,≤ -4.2
21,A39C U45C U53A G68C G94C C108G G133C G136U,≤ -4.2
22,C38A C43G C105G C116U,≤ -4.2
23,C38G C63G C69A C76U C96U U101C G136U,≤ -4.2
24,A37U C54A C57A C93U,-3.28

row,Variant,polymerase ribozyme fitness (log ratio)
1,A37C G48A C79A U90G C96G A150C,≤ -4.2
2,A37C A60C U61G G67A C95A C149U,≤ -4.2
3,C36U C63U G84A A98U A142U G143A,≤ -4.2
4,C38U A47U C54A G62C G65A C87G C96A C118A A150G,≤ -4.2
5,A37G G50U G74A C87U,≤ -4.2
6,C38A G50C G80C G83A A91U G100A,≤ -4.2
7,C36U C75G U90A,≤ -4.2
8,C36U A49U C96U C131A,≤ -4.2
9,C36U U44A A122C,-4.15
10,C38U C87U A115U C125U,-3.34
11,C36A U55A C75A C87U,≤ -4.2
12,A37U A73G C75A C85U C87U,≤ -4.2
13,A37C U44G G58A A73U C108U A142C,≤ -4.2
14,C38U G74C U82C G86A C93G,≤ -4.2
15,C38U A40C G81A A91G C125G,-3.83
16,A37G U45A C96U,≤ -4.2
17,A39C U61A U101G A110G,≤ -4.2
18,A39C A41C A115G G124A,-3.47
19,A37G C95A U127G,-4.15
20,C38G G48A A64C A89C U145G,≤ -4.2
21,A39C U53A G74C,≤ -4.2
22,A37G A41G C54U G59U C103G,≤ -4.2
23,A39C U56A G59C,-2.08
24,C36U A49C G88A C93G A115C A120G,≤ -4.2

row,Variant,polymerase ribozyme fitness (log ratio)
1,C36G U145A,-3.88
2,A37U U55G A60G C85G A107C C131U,≤ -4.2
3,C36U C96G,-2.56
4,C36G C54A G83U U101G,≤ -4.2
5,A39C C85G C105G C125G U134C,≤ -4.2
6,C38U U61G G92U C116G G140A U144C,≤ -4.2
7,A37C G67C C87U,≤ -4.2
8,A37C C38G C85U,-1.28
9,A37U G68C,≤ -4.2
10,A37G A49C A64U A73C U77C G86U G128A A142C,≤ -4.2
11,C36A A98U A113U C118U U148A,≤ -4.2
12,C35U U127G,-4.01
13,C36A U55G C99G G124C,≤ -4.2
14,A37C C96G A106G,-0.258
15,C38U G83U C149G A150C,≤ -4.2
16,C38A G68U C87G G88A U104G G141C,≤ -4.2
17,A39C G62U G70A A115G,≤ -4.2
18,C36A C57G U134G,≤ -4.2
19,C38U A41C G48A C51A G84C G141C,≤ -4.2
20,A37G U44A A52C G86U C95U U101G U144C,≤ -4.2
21,C36G U55A C76U,≤ -4.2
22,C36G U61A A120G,≤ -4.2
23,C35U G50A U77A G94A A115C G133C,≤ -4.2
24,A39C A49G U56A C99U C105A,≤ -4.2

row,Variant,polymerase ribozyme fitness (log ratio)
1,A37C C95U,-2.04
2,C35U G46U C96U,-1.23
3,A37U A52C A91U G124A G141U,≤ -4.2
4,C35U G136A G143U,-3.68
5,A39C U53A C63U C87G,≤ -4.2
6,C38A C75U C79G G81C G94A C103A C132G,≤ -4.2
7,A37U A121G G152U,-3.84
8,C38G U56A G94A A121G,-1.64
9,C36U G59A U82G A97U,-1.3
10,C38A C87U A89G,≤ -4.2
11,C35U G92A C96A,≤ -4.2
12,C35U U55A C93A C116U G136A C149G,≤ -4.2
13,C38G U146C,-0.518
14,C35U U56C U90G U139G,≤ -4.2
15,C38A C93G C123G,-3.67
16,C38G C54G C76G A107U U146G,≤ -4.2
17,C36U A39U G50C A52U A66G G92C G143C,≤ -4.2
18,C38G A73G C75G C87A U139C G143C,≤ -4.2
19,C38G U101G U102G,≤ -4.2
20,C38U U56A G68U A106U C118U G133C,≤ -4.2
21,C36A G62A C69U C95G U148A,≤ -4.2
22,C38A C85A U144C,-0.839
23,C38U A40U C75U G86A C108G G124C C132G,≤ -4.2
24,A37U C103A,-3.85

row,Variant,polymerase ribozyme fitness (log ratio)
1,C36A U45C C95U C114U A119U,≤ -4.2
2,A37U G58C A97G C132U,-2.67
3,A37U U56A C99U G143U,-3.88
4,A37C A52G G68A,≤ -4.2
5,C38A U56G G136C U146C,-3.92
6,C36A U82A A98G,-4.01
7,A37G G46A C93U A98G,≤ -4.2
8,A37G G58C C85A,-3.83
9,A37C G86A C103A A120U,≤ -4.2
10,A37G A91C A138C G140U,≤ -4.2
11,A37G C96A U102A C131U G136U,≤ -4.2
12,C38U G50A U77C C87G,≤ -4.2
13,C35U U55G A91G A106G G141A,≤ -4.2
14,A37U G58A G59C A121U,-0.167
15,A37C A40C G48C G74A G94A G126C G133A G136A A150U,≤ -4.2
16,C38A U55A C79U G83A C132G,≤ -4.2
17,A37U G42A C85A A138G,≤ -4.2
18,A37G A47U G81C C95G U102G A120U U134C U135G A137C,≤ -4.2
19,C38A C76A G84A A120G G140A A150U,≤ -4.2
20,C38U C93U A121G G124A U135G,≤ -4.2
21,C36U U77G A98U U134A,≤ -4.2
22,A37C A41C A89G A110U,≤ -4.2
23,A39C C63A A64U G84A C93G C116G,≤ -4.2
24,C36A C75U C95A C129G,≤ -4.2

row,Variant,polymerase ribozyme fitness (log ratio)
1,A37C G48A C79G A115G,≤ -4.2
2,A37G A60G G68C A142C,≤ -4.2
3,A37C A60U U61A G84U C85A C108A C125G,≤ -4.2
4,C35U G141A,0.194
5,C36U A107C A120U A122U G126A,≤ -4.2
6,A39C G59C G86A,-3.73
7,C36A A49C A60C C85G,≤ -4.2
8,A37C U53A C54G G133C G140C,≤ -4.2
9,C36A A66C G81A A91C C93U,≤ -4.2
10,C38G C69A C79A C95U C108U U146G,≤ -4.2
11,A37G G46C A52G C114G A119C,≤ -4.2
12,C38U U44A C54U G83C C96U C108G G143U,≤ -4.2
13,C35U G83U G94A C96A A106U U139A G140U G152U,≤ -4.2
14,A39C U45A A49C A52U G71U C93U U101C C116A G140U,≤ -4.2
15,A39C A66C A73U,≤ -4.2
16,C38G G133C A147C,-2.55
17,C36A A49C U146G,≤ -4.2
18,C38U C75A G80U,-4.14
19,A39C G48C G67U C87A G126U C131U A142U,≤ -4.2
20,A37G U53A G74A G83A A98G C123G G140C U146C,≤ -4.2
21,A37C C69U G88C,≤ -4.2
22,C36U G50C G70A U77A G88U U90G G94U G141A,≤ -4.2
23,A37C C95A A138C G141C,≤ -4.2
